# From PubChem BioAssay AID1508623 (National Center for Advancing Translational Sciences (NCATS), 2021)
# The whole screen tested about 48,000 compounds, of which about 450 (0.94%) were called active. Not shown: some 19% with an inconclusive outcome. Calls follow the shape of the dose curve; as a rule, active = well fitted inhibition curve with a large enough effect; inconclusive = small, poorly fitted or top-dose-only effect; inactive = no such curve, though single readings can be large or run the other way. Some of the results follow.
# Assay: Primary qHTS for Identification of Small Molecule Inhibitors of Huntingtin Promoter Activity; also: nearly all actives have a fitted effect of over 50% in size
# Conditions: HEK293 HTT promoter firefly luciferase reporter (activity 0% = vehicle and -100% = no light), 24 h; series mostly up to 57.5 µM; activity change, negative = inhibition: at the top concentration
# Procedure, shortened: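 Firefly luciferase signal from promoter-reporter HEK293 cells was scaled between vehicle (0%) and zero RLU (-100%). Compounds were tested at final concentrations of up to 57.5 uM over 24 h at 37 degrees C. PTC124 at 50 uM final served as control inhibitor.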
# Potency is read from the fitted curve at half-maximal effect.
SMILES,"activity change, negative = inhibition",Potency
Cc1cccc(-c2nc3scc(CCNS(=O)(=O)c4ccc(F)cc4C)n3n2)c1,inactive: -21.8%,
Cc1ccc(NC(=O)c2cc(S(=O)(=O)NCCC3=CCCCC3)ccc2F)cc1C,,active: 28.2 µM
Cc1ccn2c(c1)nc(=O)c1cc(S(=O)(=O)N3CCCCC3)c(Cl)cc12,inactive: -4.24%,
CCc1ccc(NC(=O)c2sc3nc(C)c(C(=O)Nc4ccc(C)cc4C)c(-c4ccco4)c3c2N)cc1,inactive: -26.5%,
Cc1oc(-c2ccccc2)nc1CNC(=O)NC1CCCCC1,inactive: 0%,
Cc1c(NC(=O)c2cc(-c3ccc(Br)cc3)on2)c(=O)n(-c2ccccc2)n1C,inactive: -20.9%,
Cc1ccc(S(=O)(=O)c2nnn3c2nc(N2CCC(C)CC2)c2cc(Cl)ccc23)cc1C,inactive: -27.2%,
CCN1C(=O)c2ccccc2S(=O)c2ccc(C(=O)N3CCN(c4ccccc4)CC3)cc21 (configuration not stated),inactive: -16.4%,
CCOC(=O)c1c(NC(=O)/C=C/c2ccc(OCC)c(OC)c2)sc2c1CCC2,inactive: -7.46%,
Cc1cccc(NC(=O)CN2C(=O)c3ccccc3Sc3ncccc32)c1C,inactive: -7.97%,
COc1ccccc1C(=O)OCc1cc(=O)n2nc(C3CCCCC3)sc2n1,inactive: -2.96%,
COc1ccc(CCNC(=O)CSC2=Nc3ccccc3C3=NC(CCC(=O)NCc4ccccc4)C(=O)N23)cc1OC (configuration not stated),inactive: -2.26%,
Cc1noc2ncnc(N3CCCC(C(=O)NC(C)C)C3)c12 (configuration not stated),inactive: -17.3%,
Cc1cccc(CCNC(=O)C2CCN(c3ncnc4c3nc3n4CCCCC3)CC2)c1,inactive: 7.31%,
CCNC(=O)Nc1ccc(Oc2ncnc(N)c2C=NOC)cc1Cl,inactive: -5%,
COc1ccc(NC(=O)c2ccc(NC(=O)CCS(=O)(=O)c3cccs3)cc2)cc1OC,inactive: 5.82%,
CCCCCn1c(CCCNC(=O)c2cccc(C)c2)nc2ccccc21,inactive: -7.94%,
O=C(CCCCn1c(=O)c2ccccc2n(CC(=O)Nc2ccccc2)c1=O)NCc1ccccc1Cl,inactive: -1.68%,
CCc1nnc2c3ccccc3nc(Nc3ccccc3OC)n12,inactive: -9.82%,
Cc1cccc(N2CCN(S(=O)(=O)c3ccc4oc(=O)c5ncn(C)c5c4c3)CC2)c1C,inactive: -10.3%,
Cc1c(C)n(Cc2ccccc2)c2ccc(C(=O)NCc3ccc(OC(C)C)cc3)cc12,inactive: -15.6%,
CCN(CC)CCCNC(=O)C1CCN(S(C)(=O)=O)CC1,inactive: -11.6%,
CCOC(=O)c1sc(NC(=O)C(C)Sc2nc(-c3ccccc3)cc(C(F)(F)F)n2)c(C(=O)OC)c1C (configuration not stated),inactive: 4.9%,
CCOc1ccc(C(=O)Nc2ccc(-c3nc4cc(C)ccc4o3)cc2)cc1,inactive: 31.5%,
Cc1oc(-c2ccc(C(=O)Nc3cccc(C(F)(F)F)c3)cc2)nc1CSc1ccccc1,,active: 1.78 µM

SMILES,"activity change, negative = inhibition",Potency
COc1ccc(Nc2nc3ccc(Cl)cc3n3nnnc23)cc1OC,inactive: -13.1%,
COc1ccc(-c2nc3scc(CCNS(=O)(=O)c4ccc(F)c(C(F)(F)F)c4)n3n2)cc1OC,inactive: -19.2%,
O=C(Oc1ccccc1Cl)c1cc(-c2ccc3c(c2)OCCO3)on1,inactive: 35.3%,
CCN1CCN(c2cc(C)c3cc(NC(=O)c4cccc(Cl)c4)ccc3n2)CC1,inactive: 35.3%,
Cc1ccc(NC(=O)c2cnc(N3CCCCC3)c3ccccc23)cc1Cl,inactive: -19.3%,
Cc1n[nH]c(C)c1CCc1nc2c3ccccc3nc(SCC(=O)Nc3ccc(F)cc3)n2n1,inactive: -5.3%,
COC(=O)c1scc(-c2ccc(C)cc2)c1S(=O)(=O)Nc1cccc(Cl)c1C,inactive: -18.8%,
Cc1ccc(CNC(=O)Cn2cc(S(=O)(=O)Cc3cccc(Cl)c3)c3ccccc32)cc1,inactive: -18.8%,
COc1ccc(-c2nc3nc(C)cc(Nc4cccc(C(F)(F)F)c4)n3n2)cc1,inactive: 1.89%,
COc1ccc(NC(=O)COc2ccc(S(=O)(=O)NC3CCCCC3)cc2)c(OC)c1,inactive: -12.3%,
O=C(CCCc1nc(-c2ccccc2)no1)Nc1cc(C(F)(F)F)cc(C(F)(F)F)c1,inactive: -22.7%,
O=C(Nc1nnc(S(=O)(=O)N2CCCCC2)s1)c1ccc(F)cc1,inactive: -8.56%,
Cc1cc(C)c(Cn2c3ccccc3c3cnn(CC(=O)NCc4ccc(Cl)cc4)c(=O)c32)c(C)c1,inactive: -18.8%,
CC1=C(C(=O)Nc2ccccc2C)C(c2ccco2)n2ncnc2N1 (configuration not stated),inactive: -3.62%,
Cc1noc(Cn2c(=O)c3ccccc3n(CC(=O)Nc3ccc(F)cc3F)c2=O)n1,inactive: -2.87%,
O=C(CN(c1cc(C(F)(F)F)ccc1Cl)S(=O)(=O)c1ccccc1)NCCc1ccccc1,inactive: -8.36%,
COc1ccc(-c2c(C#N)c(SCC(=O)Nc3ccc(Br)cc3)nc(C)c2C(=O)Nc2ccccc2)cc1,inactive: 11%,
CCOc1ccc(CCNC(=O)c2ccc3c(c2)N(Cc2ccccc2)C(=O)c2ccccc2S3=O)cc1OCC (configuration not stated),inactive: -14.9%,
COC(=O)c1ccccc1NC(=O)c1cc2c(s1)-c1ccccc1OC2,inactive: -19.2%,
O=C(CSc1nc(-c2ccccc2)c2ccccc2n1)Nc1ccc(F)cc1,inactive: 2.59%,
OC(CN1CCN(c2cccc(Cl)c2)CC1)C(c1ccccc1)c1ccccc1 (configuration not stated),inactive: -11.8%,
Cc1cc(C)c(S(=O)(=O)NCCc2cc3ccc(C)cc3[nH]c2=O)c(C)c1,inactive: -23.6%,
CC1=C(C(=O)N2CCCCC2)C(c2cccc(Cl)c2)n2c(nc3ccccc32)N1 (configuration not stated),inactive: -7.27%,
Cc1ccc(C)c(N2CCN(C(=O)CN3C(=O)COc4ccc(S(=O)(=O)N5CCC(C)CC5)cc43)CC2)c1,inactive: -17.5%,
COc1ccc(NC(=O)c2c(C)oc3ccc(O)c(CN4CCCCCC4)c23)cc1,inactive: -7.6%,

SMILES,"activity change, negative = inhibition",Potency
Cc1ccc(N2CCN(S(=O)(=O)c3ccc(-n4cnnn4)cc3)CC2)c(C)c1,inactive: -1.85%,
O=c1[nH]c(=O)n([C@H]2C[C@H](O)[C@@H](CO)O2)cc1Br,inactive: 15.3%,
Cc1[nH]cnc1-c1ccc(Cl)cc1,inactive: 5.52%,
Cc1ccc(Cl)cc1N1CCN(C(=O)c2ccc3c(c2)N(Cc2ccccc2)CCS3)CC1,inactive: -7.16%,
CCn1nnc2cc(C(=O)Nc3ccc(OC)cc3)ccc21,inactive: 71.9%,
COc1ccc(CCNC(=O)c2cc(=O)[nH]c3ccc(S(=O)(=O)N4CCCCC4C)cc23)cc1OC (configuration not stated),inactive: -31.4%,
Cc1cn2c(=O)cc(COC(=O)c3ccc(NC(=O)C(C)Oc4ccccc4)cc3)nc2s1 (configuration not stated),inactive: -13.2%,
CCOCCCNC(=O)c1c(NC(=O)c2nc(SC)ncc2Cl)sc2c1CCCC2,inactive: -7.61%,
COc1ccc(OC)c(NC(=O)CCNC(=O)Cn2cnc3ccccc3c2=O)c1,inactive: -12% [at 11.5 µM],
Fc1ccc(Nc2c(-c3ccccn3)nc3ccc(Cl)cn23)cc1,inactive: 2.83%,
O=C(NCCc1ccccc1)c1nn(-c2ccccc2Cl)nc1CO,inactive: -25.2%,
COc1cccc(NC(=O)Cc2csc(COc3cccc(C)c3)n2)c1,inactive: -6.12%,
CCCCC1(COC(=O)CCC(=O)O)C(=O)N(c2ccccc2)N(c2ccccc2)C1=O,inactive: 0.16%,
COCCn1c(C)cc(O)c(C(c2ccc(OC)cc2)N2CCN(c3ccccc3)CC2)c1=O (configuration not stated),inactive: -17.8%,
Cc1cc(C)cc(NC(=O)COCc2cc(-c3ccc4c(c3)OCO4)on2)c1,inactive: -4.11%,
CC1CCCCN1C(=O)CSc1c2c(nc3cc(Cl)ccc13)CCCC2 (configuration not stated),inactive: -8.21%,
COc1cccc(N2CCN(C(=O)C3CCN(S(=O)(=O)c4cn(C)cn4)CC3)CC2)c1,inactive: -9.77%,
CCOCCn1c(=O)c2c(nc3n2CCN3c2ccc(C)c(C)c2)n(C)c1=O,inactive: -2.59%,
NS(=O)(=O)c1ccc(NC(=O)c2csnn2)cc1,inactive: -7.39%,
COc1ccc(NC(=O)CN(C)S(=O)(=O)c2ccc3c(c2)c(=O)n(C)c(=O)n3C)cc1,inactive: -13.6%,
COc1ccc(-c2nc3ccc(Cl)cn3c2Nc2ccc(C)cc2)cc1,inactive: 4.57%,
COc1ccc(OCC2c3cc(OC)c(OC)cc3CCN2C(=O)c2c(F)cccc2F)cc1 (configuration not stated),inactive: -24.7%,
Cc1ccc(C(=O)NCC(c2ccco2)S(=O)(=O)c2ccc(Cl)cc2)cc1C (configuration not stated),inactive: -35%,
CCCCNC(=O)c1cn(C)c2ccc(S(=O)(=O)N3CCCC3)cc2c1=O,inactive: -2.31%,
CCc1ccc(-n2nc(CO)c(C(=O)NCc3cccs3)n2)cc1,inactive: -0.45%,

SMILES,"activity change, negative = inhibition",Potency
O=C(CSc1nc(=O)n(Cc2ccco2)c2c1CCC2)NCc1ccc(Cl)cc1,inactive: -11.5%,
Cc1ccc(NC(=O)CCn2c(=O)c3cccn3c3ccccc32)cc1Cl,inactive: -24.6%,
COc1cc(OC)c(NC(=O)Cn2cnc3sc(C)c(S(=O)(=O)N4CCC(C)CC4)c3c2=O)cc1Cl,inactive: -10.6%,
COc1ccc(N2CC(NC(=O)C(=O)c3c(C)[nH]c4ccccc34)CC2=O)cc1 (configuration not stated),inactive: -11.9%,
Cc1cc(C)n(-c2nc3ccccc3nc2Nc2cc(Cl)ccc2C)n1,inactive: -1.73%,
Cc1cc(C)c2nc(N(Cc3cccnc3)C(=O)Cc3ccccc3)sc2c1,inactive: -15.5%,
Cc1cc(NC(=O)Nc2nnc(N3CCCCC3)s2)ccc1Br,inactive: 1.12%,
COc1ccccc1CNC(=O)CSc1nc(=O)[nH]c2c1CCCC2,inactive: -6.8%,
CCCCCn1c(=O)[nH]c2cc(C(=O)NC(C)CC)ccc2c1=O (configuration not stated),inactive: -4.13%,
CCOc1ccc(CNC(=O)c2ccc3c(c2)nc2n3CCCCC2)cc1,inactive: 46.1%,
COCCn1c(=O)[nH]c2cc(C(=O)Nc3ccc(OC)cc3)ccc2c1=O,inactive: -8.85%,
Cc1ccc2c(c1)cc(C(=O)NCc1ccccc1C)n2C,inactive: -23.3%,
CCc1cnc2c(c1SCC(=O)Nc1ccc(C(=O)OC)cc1)c(=O)n(C)c(=O)n2C,inactive: -6.23%,
CC(C)Oc1ccc(CNC(=O)C2CCN(Cc3cc4ccccc4n3Cc3ccccc3)CC2)cc1,inactive: -26.6%,
CC(C)(C)c1ccc(OCCOCCn2c(-c3ccc(Cl)cc3)nc3ccccc3c2=O)cc1,inactive: -3.91%,
CCn1c2ccccc2c2cc(NC(=O)COc3cc(C)ccc3C)ccc21,inactive: -16.4%,
Cc1cccc(Cn2c(COc3ccccc3)nc3ccccc32)c1,inactive: -10.1%,
O=C(/C=C/c1ccccc1)Nc1nc2n(n1)C(c1ccc(F)cc1)C=C(c1ccccc1)N2 (configuration not stated),inactive: -41.1%,
CCOC(=O)CNC(=O)c1cc2c(=O)n3cccc(C)c3nc2n1C,inactive: -6.89%,
CC(=O)CC/C=C(\C)CC/C=C(\C)CC/C=C(\C)CCC=C(C)C,inactive: -1.24%,
COc1ccc(NC(=O)c2nc(-c3ccc(C)cc3)n3c2CCCCC3)c(OC)c1,inactive: 9.23%,
CCOCCc1nn2c(=O)cc(COC(=O)c3ccc(NC(=O)C(C)(C)C)cc3)nc2s1,inactive: -38%,
